Some of the results follow.
tested on: T1, Caupolican (Caup) homeodomain DNA-binding domain; assay: PBM E-score (8-mer, recovered from the published 9-mer minima) (E-score (dimensionless, -0.5 to 0.5)); Drosophila protein; higher = stronger relative binding preference, active = 0.31 or more
T1 sequence: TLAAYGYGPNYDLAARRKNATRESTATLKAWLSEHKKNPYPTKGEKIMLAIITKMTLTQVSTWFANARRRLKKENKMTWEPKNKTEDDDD
In short: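 An enrichment score, with higher meaning stronger, expresses relative binding preference for each short DNA word. The protein used was Caup's homeodomain DNA-binding domain (residues 214-303), produced by in vitro transcription and translation and tested at 100 nM on custom-designed protein binding microarrays. The 8-mer values were recovered from published 9-mer scores, each equal to the lower of its two constituent 8-mer scores.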

PBM E-score, ≥ 0.132:
ACCTATAT

PBM E-score, inactive:
CAAGTCGA 0.0142, CGCACGAA -0.0549, AGAGAACT -0.0403, CCGGTGTC 0.0381, ACAGCGTG 0.156, ACTTGGTG -0.0142, CATCATGG -0.0399, GCTTTTGA -0.0513, CTCTTCAC -0.044, CCATCGGC -0.2, AATAATCA 0.145, CACGTGAC 0.125, CAATTAGA 0.0523, GCCGGTTA -0.0272, GCACGAGA -0.0905, AGCTCCAG -0.231, CATTTTAA 0.036, CCGCGATA -0.07, AATCGCTC -0.0884, CCGGTAGA -0.0549, AGAGCACA 0.0054, CAACCAGG -0.0261, ATCTACGA 0.0766, AAGTTATG 0.185, ACGTGAGT -0.00215, ACTGGGAA -0.0105, GAAGTATC 0.111, AGTTACCA 0.113, CATGTGCA 0.119, AGCATGGC -0.0367, ACGGAGGG -0.116, GGTAAATA 0.0527, CCAATTCA 0.0663, CTTAAGTA 0.0732, GCCATATA 0.0416, CCACACAG -0.0418, GCGGGATA -0.0601, AGGAGACG -0.0975, CGCAAGAC -0.181, CAGCGACG -0.0731, CAGGCATG 0.027, AGCGATCC -0.00786, AGCTCCCT -0.171, GCTCTGGA -0.0411, GTTACGTA 0.0824, CATAGAAA 0.122, GCTAGACC -0.158, AAGCGTAG -0.0786, ATCGCCAG -0.0646, ATAACCAG 0.153, CCAAAGAC -0.0508, GACGCCCC -0.248, CCAGATGC -0.0207, ATTCTCTA -0.014, TAAGTCCA 0.0297, ACACAAGT 0.253, TCGCCGAA -0.0752

PBM E-score, active:
CCTGTACA 0.32, ATACATAA 0.348, AACGATGT 0.35

From the supplement of paper PMC3724861
